ChEMBL document CHEMBL1201862, “PubChem BioAssay data set” (2004)
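How tested: cells in 96-well plates exposed to compound for 48 hours at five concentrations. GI50 marks 50% less growth.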 The source made the active and inactive calls. Cut-off read from the data, not from the text of the source: active = GI50 up to about 1.1 µM and inactive = higher.

What follows are compounds tested on NCI-H322M (assay: NCI tumour cell line growth inhibition, 48 h).

SMILES	GI50
c1ccc2c(c1)OC(N1CCCC1)c1cnc(N3CCOCC3)nc1-2 (configuration not stated)	inactive: 43.6 µM
CCOC(=O)C1(C(=O)OCC)C=C(c2ccccc2)N(C2OC(COC(C)=O)C(OC(C)=O)C(OC(C)=O)C2OC(C)=O)C1=S (configuration not stated)	inactive: > 100 µM
COC(=O)CCC(C)[C@H]1CCC2C3C(C[C@H](OC(C)=O)[C@@]21C)[C@@]1(C)CCC2(C[C@H]1C[C@H]3OC(C)=O)OOC1(CCCCCCC1)OO2 (some centres not stated)	inactive: 47.2 µM
Cc1nc2ccccc2c(=O)n1/N=C(\N=N\c1cc(Cl)ccc1Cl)c1ccccc1	inactive: 65 µM
CCOC(=O)/C(=N\Nc1ccc(-n2c(C)nc3ccccc3c2=O)cc1)C(C)=O	inactive: 81.8 µM
O=S(O)CCCCSSCCCCSSCCCCS(=O)O	inactive: 47.6 µM
Cc1c(/N=N/c2ccccc2)c(C)n(C2OC(CO)C(O)C(O)C2O)c(=S)c1C#N (configuration not stated)	inactive: 56.6 µM
CCOc1ccc(/N=N/c2c(-c3ccccc3)nn(C(=O)CC(=O)Nc3cccc(C)c3)c2-c2ccccc2)cc1	inactive: 88.7 µM
O=C(N/N=C\C=C\c1ccc([N+](=O)[O-])o1)C(=O)N/N=C\C=C\c1ccc([N+](=O)[O-])o1	inactive: > 100 µM
NC(CCCCNc1ccn(C2OC(CO)C(O)C2O)c(=O)n1)C(=O)O (configuration not stated)	inactive: > 100 µM
CC1=CC=CC(C)(C)CC1(O[Si](C)(C)C)C(F)(F)F (configuration not stated)	inactive: > 100 µM
COc1ccc(/C(Br)=C2\OC(=O)c3ccccc32)cc1	inactive: > 10 µM
N=C(N)SCCC(=O)CCSC(=N)N	inactive: > 100 µM
CN(C(=O)Cc1ccccc1)n1cnn(CC(=O)OC(C)(C)C)c1=S	inactive: > 10 µM
Cc1c(Cl)cccc1NC(=O)/C(Cl)=C(\Cl)C(=O)O	inactive: > 100 µM
CC1(C)OC1COc1c2occc2cc2ccc(=O)oc12 (configuration not stated)	inactive: > 100 µM
C=C(C)C1CC2(C)C(C)CC(OC(=O)/C(C)=C\C)CC2C(OC(=O)/C(C)=C\C)C1O (configuration not stated)	inactive: > 100 µM
C#CCOCn1cnc2c(Sc3c([N+](=O)[O-])ncn3C)ncnc21	inactive: > 100 µM
Cc1ccc(/C=C2\N=C(N3CCOCC3)NC2=O)cc1	inactive: > 100 µM
COc1ccc2c(c1)c1c(n2CCN2CCOCC2)-c2ccccc2CC1	inactive: 53.5 µM
OC1C2C=CCC1CCC2 (configuration not stated)	inactive: > 100 µM
Brc1ccc(/C(N=N/C(=N\Sc2ccccc2)c2ccc(Br)cc2)=N/Sc2ccccc2)cc1	inactive: > 100 µM
CC1(C)CC2(C)CC1CC2NC(=O)CCN1CCOCC1 (configuration not stated)	inactive: > 100 µM

SMILES	GI50
Cc1cc(C)nc(NS(=O)(=O)c2ccc(NC(=O)c3cccc4c(NNc5ccc(S(=O)(=O)N=C(N)N)cc5)c5ccccc5nc34)cc2)n1	inactive: > 50 µM
O=S(=O)(O)c1ccc2c(/N=N/c3ccccc3)c(O)ccc2c1	inactive: > 100 µM
COC1/C=C/OC2(C)Oc3c(C)c(O)c4c(c3C2=O)C(=O)C=C(NC(=O)/C(C)=C\C=C\C(C)C(OC=O)C(C)C(O)C(C)C(OC(C)=O)C1C)C4=O (configuration not stated)	inactive: 20.6 µM
O=C(CSc1nc2ccc(I)cc2c(=O)n1Cc1ccccc1)NNC(=O)c1ccccc1	inactive: 11.3 µM
Cc1cc(=O)n(-c2cc3cccccc-3n2)[nH]1	inactive: 17.8 µM
O=c1cc(-c2ccccc2)[nH]c2ccc(N3CCCCC3)cc12	active: 0.0378 µM
CC1(C)N=c2c(ncn2CCCO)=C(C(N)=O)N1	inactive: > 100 µM
COc1cc(OC)c2c(=O)c3cccc([N+](=O)[O-])c3n(C)c2c1	inactive: > 100 µM
CCOC(=O)NC(=O)c1cn(CCCOC(=O)CCCCCCCCCCC(=O)OCCCn2cc(C(=O)NC(=O)OCC)c(=O)n(C)c2=O)c(=O)n(C)c1=O	inactive: > 100 µM
CC1=NN(C(=O)CC(=O)Nc2cccc(C)c2)C(=O)C1/N=N/c1ccc(C(=O)O)cc1 (configuration not stated)	inactive: > 100 µM
N/C(=N\c1ccc(Cl)cc1)NS(=O)(=O)c1ccc(-c2ncccc2C(F)(F)F)s1	inactive: 13.2 µM
Cc1ccc2c(O)cc(-c3ccc(Cl)cc3)nc2n1	inactive: 6.05 µM
CSCC1CC(c2ccc(Cl)cc2)=NO1 (configuration not stated)	inactive: > 100 µM
Cc1cc(OC(=O)Nc2ccc(Cl)cc2)ccc1C(=S)Nc1ccccc1	inactive: > 100 µM
CC1C(c2ccccc2)OP(=O)(OC(C#N)c2ccccc2)N1C (configuration not stated)	inactive: > 100 µM
N#C[C@H](C(=O)c1ccccc1F)c1nc2ccccc2s1	inactive: 20.5 µM
CCOC(=O)C(NC(=O)c1cccc(Cl)c1)(Nc1ccc(S(=O)(=O)Nc2cc(C)nc(C)n2)cc1)C(F)(F)F (configuration not stated)	inactive: > 100 µM
COc1ccc(-c2nc(N)nc(-c3cc(C)ccc3O)c2Cl)cc1	inactive: > 100 µM
COc1ccc(OC)c(C#Cc2ccc(OC)c(C(=O)NCCc3ccc(F)cc3)c2)c1	inactive: > 100 µM
COc1cc(NCCC2CCCCN2)c2ncccc2c1 (configuration not stated)	inactive: 99.5 µM
BrCC[N+]12CC[N+](CCBr)(CC1)C2	inactive: > 100 µM
O=C1C=C(c2[nH]c3ccccc3c2C2=CC(=O)c3ccccc3C2=O)C(=O)c2ccccc21	inactive: > 100 µM
CCCCON1C[C@H](OC(C)=O)C(OC(C)=O)[C@H](OC(C)=O)C1 (some centres not stated)	inactive: > 100 µM

SMILES	GI50
CNCCCNC(=S)Cn1cc(C)c(=O)[nH]c1=O	inactive: > 54.3 µM
CC(C)=CCc1[nH]c2ccccc2c1C1=C(O)C(=O)C(c2c(CC=C(C)C)[nH]c3ccccc23)=C(O)C1=O	inactive: 1.56 µM
CN(C)CCSc1cccc(-c2cc(-c3cccc(SCCN(C)C)c3)nc(SCCN(C)C)n2)c1	inactive: 1.84 µM
COc1cc2c(cc1OC)C(CC(=O)NN=C(C)C)NCC2 (configuration not stated)	inactive: > 100 µM
CC1CCCN(CC(O)CN2CCCc3ccccc32)C1 (configuration not stated)	inactive: > 100 µM
CCOC(=O)c1nc2c3c(ncn2n1)Oc1c(c(-c2ccccc2)nn1-c1ccccc1)C3c1ccc(OC)c(OC)c1 (configuration not stated)	inactive: > 100 µM
Cc1cc(Cl)ccc1N1C(=O)C(=O)C(c2nc3ccccc3o2)C(=O)C1=O	inactive: > 100 µM
COc1ccc(CNC(=O)NCn2cc(-c3ccccc3)nn2)cc1	inactive: > 100 µM
Nc1ncc(/C=N/O)c(NCC2(CO)CC(CCc3ccccc3)C2)n1 (configuration not stated)	inactive: 11.9 µM
Cc1cc2nc3c(C#N)c4c(c(-c5ccc(Cl)cc5)n3c2cc1C)CCC4	inactive: 16.3 µM
N#Cc1cccc2c1Nc1ccccc1S2	inactive: > 100 µM
COc1ccccc1NC(=S)N/N=C/c1cccc(C)n1	inactive: 10.9 µM
NCCSCC(N)C(=O)O (configuration not stated)	inactive: 31.1 µM
S=C(S)N1CCN(c2ccccc2)CC1	inactive: > 100 µM
COc1cc2c(c(OC)c1)C1(CC(CC#N)C2)SCCS1 (configuration not stated)	inactive: > 100 µM
N#C/C=C1\C=CC(O)C(O)C1OC1OC(CO)C(O)C(O)C1O (configuration not stated)	inactive: > 100 µM
NC1CC(=O)c2cc(Br)sc21 (configuration not stated)	inactive: > 100 µM
O=C(O)c1cc2ccccc2c(S(=O)(=O)O)c1O	inactive: > 100 µM
Cc1ccc(N2C(=O)C3c4[nH]c5ccc(C)cc5c4C4CCC(C(C)(C)C)CC4C3C2=O)cc1 (configuration not stated)	inactive: 17.4 µM
CCOC(CBr)OC1C(=O)OCC1(C)C (configuration not stated)	inactive: > 100 µM
O=C1C(=C(C(F)(F)Cl)C(F)(F)Cl)C2CCC1C2 (configuration not stated)	inactive: > 5.46 µM
